Measured values: paper PMC12136788
Some of the results follow.

B1: chr17:85413340:85413341:+_ENSMUSG00000061130_ENSMUST00000080217|mus_mus|motif|central (ssRNA)
RNA: GGGAGUUCUACAGUCCGACGAUCAGUCAAUCUUAAACUAUCAUAAAGGUGUAUGCAAAGGCCUUUAAAAAAACCAAGACGGUAGGAAUAUAAGAAAACUAGUUUUUCAAGAUUCAAAUAACAAAAUGGUUAUAUAAAAGCACACAACAGAGGAUUGAGCAUCA
B2: chr6:122779733:122779734:-_ENSG00000111897_ENST00000339697|hu_mus|FALSE|FALSE (ssRNA)
RNA: GGGAGUUCUACAGUCCGACGAUCUAACAUUACACAAGCUACACAUACUCCGACGAGCAAGAAAAGUGCGUAGAUCAAUCUAGUCACAGUGGAGUUGUUCCCACUGGGGCAGCAUCGGCACAGCAAACACGGGGCACUGCCACACAACAGAGGAUUGAGCAUCA
B3: 192160836_192194664_288_CDS_ENSG00000128641_ENST00000304164|human|control|control (ssRNA)
RNA: GGGAGUUCUACAGUCCGACGAUCAAAGAUGUGAGGGCUCAGUUCAUAAAAAUUUCUGUUCCUGUAUUCUUCCACUUUCUCUGGUGAAUAAAUGGGUAAAGACCGGUAUGGGUUAACAGAUAUAACCACACUUCCAAUGUAUGUCAACAGAGGAUUGAGCAUCA
B4: chr4:106720802:106720803:+_ENSMUSG00000061887_ENSMUST00000030367|mus_hu|motif|central (ssRNA)
RNA: GGGAGUUCUACAGUCCGACGAUCGUUUUGUCCUUCUUGUUUUAUGGAAUAAAAAGUUUGGCCUUUUUAUUGCAUGAAACGGAAAUUGGGAAAGGUAGGGGGCGUGGAUGGGGUGGGAGGGGGUUGAGGGGAGCAGGGAGAUGCCAACAGAGGAUUGAGCAUCA
B5: chr17:49239293:49239294:+_ENSG00000239672_ENST00000393196|hu_mus|FALSE|FALSE (ssRNA)
RNA: GGGAGUUCUACAGUCCGACGAUCCACAGGGAGUCACAGCUCCCAAAGGUUCCUUCCAGGUCAAAGAAGUUCCAGAAAUAUCUAGGGUUGCUGGUCCCCUGCCUGUGAGAACAAGAGUAAGCAGGUAGAAAACCAGCACCGUCCCAACAGAGGAUUGAGCAUCA
B6: chr7:72463354:72463355:-_ENSMUSG00000030516_ENSMUST00000102592|mus_mus|FALSE|FALSE (ssRNA)
RNA: GGGAGUUCUACAGUCCGACGAUCUAGCUUCCUGGCGCUUUUCCGAGACUCCGGACACAACCUCAUCCUCAUUGUUUUUACACCUUGCUUAGAGUCAGGGUUAAGGAACACAACAAUUGGAUACCACUGCGCAUAAUUAAGACGCAACAGAGGAUUGAGCAUCA
B7: chr1:78428562:78428563:-_ENSG00000162613_ENST00000370768|hu_mus|FALSE|FALSE (ssRNA)
RNA: GGGAGUUCUACAGUCCGACGAUCAAUUGUAAAUAACUUCAUAUUGGGAUCUGCAUUAGGUGGAGGGCUUCUCUGCAGUUCUAUUCUUGCACCAGACUGUUGGCUUAUGCUUUUUAUGGUUUCACCUCCUUUUCCAAUGAUCAGCAACAGAGGAUUGAGCAUCA
B8: chr14:21343309:21343310:-_ENSMUSG00000021816_ENSMUST00000161445|mus_mus|motif|central (ssRNA)
RNA: GGGAGUUCUACAGUCCGACGAUCAGGAUCAGACCAUAGCAAGUCACACAUUGGUCCAAAUGCAGGUGGCUCUUUAAAUCGGUCGGAUCUCCUAAUAUCAUCCAGUGUGUGUAUUUCUGGUGAAAGUCCACCAUGAACACAAAGCAACAGAGGAUUGAGCAUCA
B9: 112478359_112480922_2652_CDS_ENSG00000111300_ENST00000261745|human|control|control (ssRNA)
RNA: GGGAGUUCUACAGUCCGACGAUCACCUUUACAUUUACUGAAGACAUCUUUUAACUGGUCUAGUAAAGACUUAAAACUAUUUUCUAUUCGUUCCUGAAUCUCCAUUGUAUCCUCUAAACCACUGGUAUCCAGCUCAUAAAUAUCCAACAGAGGAUUGAGCAUCA
B10: chr15:66793332:66793333:-_ENSG00000174444_ENST00000568588|hu_hu|motif|central (ssRNA)
RNA: GGGAGUUCUACAGUCCGACGAUCCAUGGGAAGAUUGUAGUUACUCUUGAGGGAAGCGGCUUUACGCCAAGUGCCGUACAAUUCAUCGGACUUCCGGAAAGCACUUUCAGUCCAAAUGCAGAAACGUCCCACAUGCCCACCAGGCAACAGAGGAUUGAGCAUCA
B11: chr17:5392700:5392701:+_ENSG00000167842_ENST00000573759|hu_hu|motif|central (ssRNA)
RNA: GGGAGUUCUACAGUCCGACGAUCGUUCUGUAGUUUUCUGGAGUUCUGAACCAGGGAUACUAAACUCUCCCUAAAAUCACGGGUCCCAUGAUCUCUGCCAACAUUAUGAAGCUCAUCAAAGAAAGUCAACGUCUGUUUGAGUUUCAACAGAGGAUUGAGCAUCA
B12: chr16:18284709:18284710:-_ENSMUSG00000022718_ENSMUST00000009321|mus_hu|motif|central (ssRNA)
RNA: GGGAGUUCUACAGUCCGACGAUCAACCACUGCCUCAAUUAUUGGAAAUCACAAUGCACUCAGCUUAAGUGACUGGCGACGGAGCGAGUCUGUCUUCAUGCCGGAGUGGCACCUUUCUUCUUCUACCUGAGGCGCCCGCGGGCUCAACAGAGGAUUGAGCAUCA
B13: chr7:140404665:140404666:+_ENSG00000090266_ENST00000247866|hu_hu|hu_hu_hu_mus_False|28_88 (ssRNA)
RNA: GGGAGUUCUACAGUCCGACGAUCUGCUCCUACUCGUCCAGAGAGUUUACACCUUCAGUCCUCGUCAUCAGGAGGGAUUCCCAGUUCUUCAUCUGUCCACUGUGAAGGAUCAGGAUAUGAAAAGUGACCCAGCACAGCAUCCGACAACAGAGGAUUGAGCAUCA
B14: 158574767_158574887_5279_3pUTR_ENSMUSG00000026596_ENSMUST00000166172|mouse|control|control (ssRNA)
RNA: GGGAGUUCUACAGUCCGACGAUCUUAAUAAUGCCCUCAAGUUUUCACUUCCUCUGCCCCAUCUAACUAAGUUAACUGCUAGAAUAAAUUCAAGUUUAUGCGUGCAUCCGAUGUGCAGAACAGUGGCCACCAAGGUGGAGGGAACAACAGAGGAUUGAGCAUCA

target: T1, UNK ZnF1-3 (human, UniProt Q9C0B0 31-174); test: nsRBNS (natural sequence RNA bind-n-seq); RBNS binding buffer (assumed for nsRBNS): 25 mM Tris pH 7.5, 150 mM KCl, 3 mM MgCl2, 0.01% Triton X-100, 500 ug/ml BSA, 20 U/ml SUPERase-In, 4 C; UNK is unkempt and MSI1 is Musashi-1; names of the RNAs are library labels; protein concentration not given here; high values mean tight binding
T1 sequence: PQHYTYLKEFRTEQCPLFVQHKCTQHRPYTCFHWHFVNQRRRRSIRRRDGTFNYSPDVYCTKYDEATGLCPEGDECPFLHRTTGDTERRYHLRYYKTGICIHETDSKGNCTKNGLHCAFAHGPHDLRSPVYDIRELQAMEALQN

Row | Binder | binding signal [enrichment R]
1 | B1 | 1.28
2 | B2 | 1.21
3 | B3 | 1.14
4 | B4 | 1.2
5 | B5 | 0.811
6 | B6 | 1.35
7 | B7 | 0.66
8 | B8 | 0.832
9 | B9 | 0.977
10 | B10 | 0.923
11 | B11 | 0.926
12 | B12 | 0.874
13 | B13 | 1.1
14 | B14 | 1.37
